Laboratory results as given in paper PMC11995724, “Antibiotic target discovery by integrated phenotypic and activity-based profiling of electrophilic fragments” (Cell chemical biology, 2025).
Hit rate of the full screen: of about 3,200 compounds, about 75 (2%) showed an effect of 50% or more. Some of the results follow.

tested on: T1, S. aureus MSSA476; design: species or system S. aureus MSSA476 (TSB) or V. cholerae SAD30 (LB); 384-well bacterial growth screen at 25 uM, OD600 relative to DMSO control; settings: relative growth, OD600, TSB; 25 µM; inhibitor
T1 construct: MSSA476

SMILES	% of control remaining [%]
C=CC(=O)N1CCCCC1 [1-C12, 1-(piperidin-1-yl)prop-2-en-1-one]	98.4615
C=CC(=O)Nc1cnn(CC(F)(F)F)c1 [1-A11, N-[1-(2,2,2-trifluoroethyl)-1H-pyrazol-4-yl]prop-2-enamide]	131.516
C=CC(=O)NCc1ccnn1C1CCCC1 [3-H21, N-[(1-cyclopentyl-1H-pyrazol-5-yl)methyl]prop-2-enamide]	99.6082
C=CC(=O)NCc1ccc(-n2ccc(C3CC3)n2)cc1 [2-B03, N-{[4-(3-cyclopropyl-1H-pyrazol-1-yl)phenyl]methyl}prop-2-enamide]	116.275
C=CC(=O)NCc1cccc(N2C(=O)NC3(CCCC3)C2=O)c1 [2-M11, N-[(3-{2,4-dioxo-1,3-diazaspiro[4.4]nonan-3-yl}phenyl)methyl]prop-2-enamide]	92.9504
COc1cc([N+](=O)[O-])ccc1NC(=O)C(C)Cl (stereo not drawn) [4-K12, 2-chloro-N-(2-methoxy-4-nitrophenyl)propanamide]	98.7137
C=CC(=O)N1CSCC1C(=O)NCC1CC1 (stereo not drawn) [1-P17, N-(cyclopropylmethyl)-3-(prop-2-enoyl)-1,3-thiazolidine-4-carboxamide]	104.44
CC(Cl)C(=O)Nc1cc(C(F)(F)F)ccc1Cl (stereo not drawn) [4-N15, 2-chloro-N-[2-chloro-5-(trifluoromethyl)phenyl]propanamide]	97.9514
CC(Cl)C(=O)N1CCCCC1c1nc(-c2ncccn2)no1 (stereo not drawn) [7-D15, 2-chloro-1-{2-[3-(pyrimidin-2-yl)-1,2,4-oxadiazol-5-yl]piperidin-1-yl}propan-1-one]	96.0754
C=CC(=O)NCc1ccc(C(=O)NC2CC(=O)N(C)C2)cc1 (stereo not drawn) [3-N22, N-(1-methyl-5-oxopyrrolidin-3-yl)-4-[(prop-2-enamido)methyl]benzamide]	119.46
N#CC(C(=O)CCl)=C1NC(=O)c2ccccc2N1 [10-P14, 4-chloro-3-oxo-2-(4-oxo-1,2,3,4-tetrahydroquinazolin-2-ylidene)butanenitrile]	93.75
Cc1nc2ccccc2n(CCCN(C)C(=O)CCl)c1=O [6-D04, 2-chloro-N-methyl-N-[3-(3-methyl-2-oxo-1,2-dihydroquinoxalin-1-yl)propyl]acetamide]	74.0976
COc1cc(C=C(C#N)C(=O)Nc2nccs2)cc(OC)c1 [9-J03, 2-cyano-3-(3,5-dimethoxyphenyl)-N-(1,3-thiazol-2-yl)prop-2-enamide]	113.258
C=CC(=O)N1CCn2nccc21 [1-P16, 1-{1H,2H,3H-pyrazolo[1,5-a]imidazol-1-yl}prop-2-en-1-one]	105.143
CCC(C)C1CN(Cc2ccc(C)nc2)CCN1C(=O)C(C)Cl (stereo not drawn) [7-O16, 1-[2-(butan-2-yl)-4-[(6-methylpyridin-3-yl)methyl]piperazin-1-yl]-2-chloropropan-1-one]	92.9356
COC1(OC)CCOCC1NC(=O)CCl (stereo not drawn) [7-D10, 2-chloro-N-(4,4-dimethoxyoxan-3-yl)acetamide]	88.854
COc1ccc(CN(C)C(=O)CCl)cc1F [4-F03, 2-chloro-N-[(3-fluoro-4-methoxyphenyl)methyl]-N-methylacetamide]	99.0948
C=CC(=O)N1CCCn2cccc2C12CCOCC2 [1-A22, 1-{2',3',4',5'-tetrahydrospiro[oxane-4,1'-pyrrolo[1,2-a][1,4]diazepin]-2'-yl}prop-2-en-1-one]	119.912
C=CC(=O)Nc1cccc(NS(=O)(=O)C2CC2)c1 [3-D16, N-(3-cyclopropanesulfonamidophenyl)prop-2-enamide]	105.529
CC(Cl)C(=O)NC1CCCCC1n1cccn1 (stereo not drawn) [7-F17, 2-chloro-N-[2-(1H-pyrazol-1-yl)cyclohexyl]propanamide]	96.7033
CC(Cl)C(=O)N1C2CCC1CC(c1ccnn1C)C2 (stereo not drawn) [7-O15, 2-chloro-1-[3-(1-methyl-1H-pyrazol-5-yl)-8-azabicyclo[3.2.1]octan-8-yl]propan-1-one]	104.239
CSc1cccc(NC(=O)CCl)c1 [4-H10, 2-chloro-N-[3-(methylsulfanyl)phenyl]acetamide]	113.959
C=CC(=O)N1CCC(c2nc(C(=O)O)co2)CC1 [2-K03, 2-[1-(prop-2-enoyl)piperidin-4-yl]-1,3-oxazole-4-carboxylic acid]	134.726
O=C1CCCc2cc(C(=O)CCl)ccc2N1 [10-M20, 7-(2-chloroacetyl)-2,3,4,5-tetrahydro-1H-1-benzazepin-2-one]	137.5
COc1ccc(NC(=O)CCl)c([N+](=O)[O-])c1 [4-I21, 2-chloro-N-(4-methoxy-2-nitrophenyl)acetamide]	105.193
N#CC(=Cc1cccc(F)c1)C(=O)Nc1cc(Cl)ccc1Cl [9-P03, 2-cyano-N-(2,5-dichlorophenyl)-3-(3-fluorophenyl)prop-2-enamide]	107.865
N#Cc1c(NC(=O)CCl)oc(-c2ccco2)c1-c1ccco1 [5-D10, 2-chloro-N-[4'-cyano-2'-(furan-2-yl)-[2,3'-bifuran]-5'-yl]acetamide]	66.6667
CC(Cl)C(=O)Nc1cccc(C#N)c1 (stereo not drawn) [5-B10, 2-chloro-N-(3-cyanophenyl)propanamide]	87.0674
O=C(CCl)Nc1ccc2oc3ccccc3c2c1 [6-N06, 2-chloro-N-{8-oxatricyclo[7.4.0.0,2,7]trideca-1(9),2(7),3,5,10,12-hexaen-4-yl}acetamide]	127.024
CC(Cl)C(=O)Nc1ccc(C2CC(=O)NC(=O)N2)cc1 (stereo not drawn) [5-D19, 2-chloro-N-[4-(2,6-dioxo-1,3-diazinan-4-yl)phenyl]propanamide]	126.412
